Experimental data taken from PubChem BioAssay AID686971 (National Center for Advancing Translational Sciences (NCATS), 2013).
About 7,500 (2.1%) of roughly 360,000 compounds were called active. Inconclusive means that the source gave no clear call. Such entries were picked first, then a sample of the others. The call rests on the fitted dose curve; in most records, active means well fitted cell-killing curve with a large enough effect; inconclusive means small, poorly fitted or top-dose-only effect, or effect the other way, or another doubt; inactive means no such curve, though single readings can be large or run the other way. No potency is given beside an inconclusive call; the fits are too rough.

assay: qHTS for induction of synthetic lethality in tumor cells producing 2HG: qHTS for the HT-1080-IDH1KD cell line; details: HT-1080 IDH1 knockdown viability, ATP luminescence, 48 h; series mostly up to 46.1 µM
Method in brief: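 HT-1080-IDH1KD cells (IDH1 knocked down), 750/well in RPMI with 5% FBS, treated with compound 48 h at 37 degrees C. Viability by CellTiter-Glo luminescence, normalised to DMSO and no-cell wells; concentration-response curves classed.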
Potency means the concentration at half of the fitted maximal effect; tags describe the fitted curve by direction and shape.

Row | Compound | Potency
1 | COC/C=C/C1=CC2=CC(=O)C(C)(OC(=O)c3cnc4ccccc4n3)C(=O)C2=CN1c1ccccc1 (stereo unspecified) | inactive
2 | Cn1cc(-c2ccc(Cl)cc2)cc(C#N)c1=O | inactive
3 | CCN(CC)c1ccc(N=Cc2ccccc2[N+](=O)[O-])cc1 | inconclusive [cytotoxic, partial curve]
4 | CN(C)C(=O)c1cccc(-c2cccc(-c3nc(C(=O)NCc4ccccc4)cc4c3[C@@H](CCO)N(S(=O)C(C)(C)C)C4)c2)c1 (stereo partly specified) | inconclusive [cytotoxic, single point]
5 | CCCCCCCCN1C(=O)[C@H](CC(=O)NCCCOC)C[C@@]2(C(=O)OCC)CCCC=C12 | inconclusive [cytotoxic, single point]
6 | CCCOC(=O)CCn1c(=S)oc2ccccc21 | inactive
7 | Nc1ncnc2c1ncn2[C@@H]1O[C@H](C(=O)N2CCN(c3ccc(Cl)cn3)CC2)[C@@H](O)[C@H]1O | inconclusive [cytotoxic, single point]
8 | CCC(NC(=O)c1cc(COc2ccc(F)cc2Cl)on1)c1ccncc1 (stereo unspecified) | inconclusive [cytotoxic, single point]
9 | CCOC(=O)C1C(C(=O)OC)=C(c2ccc(OC)cc2)c2ccccc2N1S(=O)(=O)C(F)(F)F (stereo unspecified) | inactive
10 | CCCCCCNC(=O)O[C@H]1CN(C(=O)OC(C)C)N(C(=O)OC(C)C)[C@@H]2CN(S(=O)(=O)c3ccc(C)cc3)C[C@]12O | inconclusive [cytotoxic, single point]
11 | Cc1occc1-c1nnc(SCC(=O)Nc2nc3ccccc3s2)o1 | inconclusive [cytotoxic, single point]
12 | COc1cc2c(cc1OC)C1(CCCC1)C(N)=C2C#N | inconclusive [cytotoxic, partial curve]
13 | CC1=C(C(=O)N(C)C)CC(CC(=O)NC(c2ccccc2)c2ccccc2)C(=O)N1Cc1ccc(F)cc1 (stereo unspecified) | inactive
14 | NC(=O)c1sc2nc3c(c(-c4ccc(Cl)cc4)c2c1N)CCCC3 | inconclusive [cytotoxic, single point]
15 | c1csc(CCNc2ncnc3sc4c(c23)CCC4)c1 | inconclusive [cytotoxic, single point]
16 | CC[C@]1(O)CC2CN(CCc3c([nH]c4ccccc34)[C@@](C(=O)OC)(c3cc4c(cc3OC)N(C=O)[C@H]3[C@@](O)(C(=O)OC)[C@H](OC(C)=O)[C@]5(CC)C=CCN6CC[C@]43[C@@H]65)C2)C1 (stereo partly specified) | active: 0.184 µM
17 | CCOC(=O)[C@]12CCCC=C1N(Cc1ccc3c(c1)OCO3)C(=O)[C@H](CC(=O)N1CCC(c3ccccc3)CC1)C2 | inconclusive [cytotoxic, partial curve]
18 | CCCCn1c(SCC(=O)Nc2cc(C)on2)nc2ccccc2c1=O | inactive
19 | CNCCC=C1c2ccccc2CCc2ccccc21 | inconclusive [cytotoxic, single point]
20 | O=C(Nc1ccsc1C(=O)NC1CCCCC1)c1ccc(F)cc1 | inconclusive [cytotoxic, single point]
21 | CCN1CCN(CCNC(=O)c2ccc(/C=C3\Sc4ccccc4N(Cc4ccccc4F)C3=O)cc2)CC1 | active: 20.6 µM

Row | Compound | Potency
22 | COc1ccc(-c2nc(Cn3c(SCc4ccccc4F)nc4ccncc43)c(C)o2)cc1 | inconclusive [cytotoxic, single point]
23 | CCCCN(C=O)c1c(CC)nc2c(OCc3cc(Cl)cc(Cl)c3)cccn12 | inconclusive [cytotoxic, single point]
24 | CCCc1c(NC(=O)Nc2ccc(F)cc2)cnn1-c1ccc(Cl)cc1 | inactive
25 | CCC(CC)C(=O)N(C)c1c(C)nc2c(OCc3ccccc3C)cccn12 | inconclusive [cytotoxic, single point]
26 | COc1ccc(C=CC(=O)c2ccc(OC)c(OC)c2)cc1O | active: 20.6 µM
27 | Cc1cccc(OCCCSc2nc3ccc(C)cc3[nH]2)c1 | inactive
28 | CCOC(=O)c1sc(NC(=O)c2cc(-c3ccccc3)nc3ccccc23)c(C#N)c1C | active: 5.17 µM
29 | COc1ccc(/C=N/NC(=O)CCC(=O)Nc2ccc(Br)cc2)c(OC)c1 | inconclusive [cytotoxic, single point]
30 | COC(=O)c1cc(CSC(=N)N)ccc1OCCC(C)C | inconclusive [cytotoxic, single point]
31 | C=CCN1CC(c2nc3ccccc3n2Cc2cccc3ccccc23)CC1=O (stereo unspecified) | inconclusive [cytotoxic, single point]
32 | O=C(NNC(=O)C1CC=CCC1)c1ccccc1O (stereo unspecified) | inconclusive [cytotoxic, single point]
33 | Cc1ccc2ccccc2c1COC(=O)c1nonc1N | inactive
34 | CC12CC(NC(=O)N1c1cccc(C(=O)NCc3ccc4c(c3)OCO4)c1)c1cc(Cl)ccc1O2 (stereo unspecified) | inconclusive [cytotoxic, single point]
35 | C=CCNC(=O)c1cc(-c2ccc3c(c2)OCO3)on1 | inconclusive [cytotoxic, partial curve]
36 | Cc1csc(NC(=O)CCCSc2nc3ccccc3s2)n1 | inconclusive [cytotoxic, single point]
37 | Cc1ccccc1/C=N/Nc1ccnc2cc(Cl)ccc12 | inconclusive [cytotoxic, single point]
38 | Brc1cc2[nH]cnc2c2ccccc12 | inconclusive [cytotoxic, single point]
39 | CC1=C(C(=O)N(C(C)C)C(C)C)CC(CC(=O)NCCCCc2ccccc2)C(=O)N1CCC1=CCCCC1 (stereo unspecified) | inconclusive [cytotoxic, single point]
40 | COC(=O)[C@@H](Cc1ccccc1)NC(=O)/C=C/[C@H]1O[C@@H](n2cnc3c(NC(=O)c4ccccc4)ncnc32)[C@H](O)[C@@H]1O | inactive
41 | O=C1Nc2ccccc2/C1=C/c1cnc(-c2ccccc2)[nH]1 | inconclusive [cytotoxic, single point]
